Experimental data reported in PubChem BioAssay (NCI).
“And” between values parts separate entries of the source, which are not always exact repeats. Identical values can stand only once.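 Results reflect a 48-hour exposure of cells in 96-well plates to compound at five concentrations. The concentration for 50% growth inhibition is given as GI50. TGI marks complete inhibition of growth.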

test system: NCI-H322M lung; test: DTP human tumour cell line panel, 48 h

Going from `COCCOCC(=O)N(CCn1ccc(NC(c2ccccc2)(c2ccccc2)c2ccccc2)nc1=O)CCn1cnc2nc(N)[nH]c(=O)c21` to `CN(CCCNC(=O)c1nn(-c2ccc(Cl)cc2Cl)c2c1ccc1ccccc12)CCCNC(=O)c1nn(-c2ccc(Cl)cc2Cl)c2c1ccc1ccccc12`, the TGI falls from greater than 100 µM to 3.12 µM.

`CCCCC(=O)Oc1ccc2c(C)cc(=O)oc2c1` and `CCOC(=O)/C=C1\c2ccccc2C(=O)N1CC(=O)OCC` cannot be ordered by TGI: greater than 100 µM for the first, greater than 100 µM for the second.

`COc1cc2cc(C(=O)N3CC(CCl)c4ccccc43)[nH]c2c(OC)c1OC` (stereo unspecified) and `COc1cc(/C=C2/C(=O)N(C(=O)c3ccc(Cl)cc3)N=C2C)cc(OC)c1OC` cannot be ordered by TGI: greater than 100 µM for the first, greater than 100 µM for the second.

`COc1cccc(C2C3=C(COC3=O)Oc3cc4c(cc32)OCO4)c1` (stereo unspecified) and `COc1cc([C@@H]2c3cc4c(cc3[C@@H](NC(=O)c3cccc(F)c3)C3COC(=O)[C@@H]32)OCO4)cc(OC)c1O` (stereo partly specified) cannot be ordered by TGI: greater than 100 µM for the first, greater than 100 µM for the second.

First: N[C@@H]1CCCN(c2c(/C=C3\SC(=O)NC3=O)cccc2-c2ccccc2)C1
Second: COc1cccc(CC2Cc3ccccc3CC(=O)N2)c1 (stereo unspecified)
The TGI of the first is lower: 29.7 µM for the first, greater than 100 µM for the second.

`O=C1/C(=C/c2ccc(Cl)cc2)N=C(c2ccccc2)N1c1ccc(S(=O)(=O)Nc2nccs2)cc1` and `CN(C)C(=O)Oc1ccc(-c2cn3cc(NC(=O)c4ccccc4)ccc3n2)cc1` cannot be ordered by TGI: greater than 100 µM for the first, greater than 100 µM for the second.

`[N-]=[N+]=NC(CBr)c1cn([C@H]2C[C@H](O)[C@@H](CO)O2)c(=O)[nH]c1=O` (stereo partly specified) and `O=C(O)Cn1c(=O)[nH]c(=O)c2c1ncn2Cc1ccccc1` cannot be ordered by TGI: greater than 100 µM for the first, greater than 100 µM for the second.

`O=C1c2c(O)cc(O)cc2OC(c2ccc(O)cc2O)C1O` (stereo unspecified) and `Cn1c2cc(O)cc(O)c2c(=O)c2c([N+](=O)[O-])cccc21` cannot be ordered by TGI: greater than 100 µM for the first, greater than 100 µM for the second.

Going from `COC12CC(=O)C(C(C)=O)=C(O)C1(C)c1c(OC(C)=O)c(C)c(O)c(C(C)=O)c1O2` (stereo unspecified) to `COc1c(O)c2c(=O)cc(OC)c3c4c(OC)cc(=O)c5c(O)c(OC)c6c(c(c1C(C(C)=O)C6C(C)O)c23)c54` (stereo unspecified), the TGI falls from greater than 100 µM to 2.03 µM.

`C=C(Cl)C(=C)CCC(Cl)C(C)C` (stereo unspecified) and `CC(=O)OC1CC[C@]2(C)C3CC[C@@]4(C)C(CCC4[C@H](C)CCCC(C)C)[C@@H]3CCC2(Br)C1` (stereo partly specified) cannot be ordered by TGI: greater than 100 µM for the first, greater than 50 µM for the second.

Going from `S=c1sc2nc(Cl)nc(Cl)c2s1` to `Clc1nc2n(c1/C=C/c1cccs1)CCS2`, the TGI rises from 31.4 µM to greater than 100 µM.

Going from `C#CCOc1cccc(Nc2ncnc3ccc(NC(=O)CCl)cc23)c1` to `CC1=C(c2cc(C(=O)Nc3cccc(C(F)(F)F)c3)ncn2)Sc2ccccc2N1`, the TGI rises from 40.2 µM to greater than 100 µM.

Going from `O=C(O)c1ccccc1/C=N/NC1=NCCCCN1` to `C/C=C/C(=O)N1C(=O)OC[C@@H]1c1ccccc1`, the TGI falls from greater than 100 µM to 32.6 µM.

`COc1ccc(-c2cc(=O)c3c(O)cc(C)cc3o2)cc1OC` and `COc1cc2c(cc1OC)C(=O)C(C1=C(SC(=N)N)C(=O)c3cc(OC)c(OC)cc31)C2` (stereo unspecified) cannot be ordered by TGI: greater than 100 µM for the first, greater than 100 µM for the second.

Compared with `O=[N+]([O-])c1ccc(Sc2c3ccccc3nc3ccccc23)nc1`, `CCCCS(=O)(=O)Nc1ccc(Nc2c3ccccc3nc3ccccc23)c(OC)c1` is 1.6-fold lower in TGI: 37.7 µM for the first, 24 µM for the second.

`Cn1ncnc1CCc1ccccc1` and `NC(Cc1ccccc1)(C(=O)O)C(=O)O` cannot be ordered by TGI: greater than 100 µM for the first, greater than 100 µM for the second.

`COc1cc2c(cc1OC)C(N)CC2=O` (stereo unspecified) and `COc1ccc(/C(=N/NC(N)=O)C(c2ccc(OC)cc2)C2C(=O)Oc3ccccc32)cc1` (stereo unspecified) cannot be ordered by TGI: greater than 100 µM for the first, greater than 100 µM for the second.

`C=CCN(C)CN(C)c1nc(N(C)C)nc(N(C)C)n1` and `Cc1nc(N)sc1C(=O)Nc1cc(C(=O)NCCCN(C)C)n(C)c1` cannot be ordered by TGI: greater than 100 µM for the first, greater than 100 µM for the second.

Going from `CC(C)(C)C(=O)O[C@@H]1COC2C(O)COC21` (stereo partly specified) to `C=C1C(=O)O[C@H]2[C@H]1CC(=O)/C(C)=C/CC[C@@]1(C)O[C@@H]21`, the TGI falls from greater than 100 µM to 25 µM.

Compared with `O=C(Oc1ccccc1Cl)c1ccccc1Nc1ccnc(C(F)(F)F)c1`, `c1ccc(-c2nnc(-c3nsc4ccccc34)o2)cc1` is higher in TGI: 19.4 µM for the first, greater than 100 µM for the second.

`O=c1[nH]n(Cc2ccccn2)c2ccc([N+](=O)[O-])cc12` and `Nc1nnc(Cn2c(-c3ccccc3)nc3ccc(Br)cc3c2=O)s1` cannot be ordered by TGI: greater than 100 µM for the first, greater than 100 µM for the second.

Compared with `CCCCCC/C=C\CCCCCCCCCC1=CC(=O)C=C(OC)C1=O`, `CCCCCCCCCCCCN(O)C(=O)c1ccccc1` is higher in TGI: 25.5 µM for the first, greater than 100 µM for the second.

Compared with `C=C(C)[C@@H]1CC[C@]2(COC3CCCCO3)CC[C@]3(C)[C@H](CC[C@@H]4[C@@]5(C)C=C(C=O)C(=O)C(C)(C)[C@@H]5CC[C@]43C)[C@@H]12` (stereo partly specified), `Cc1ccc(S(=O)(=O)N2CCCC2C(=O)O[C@H]2CC[C@H]3CC=C[C@H]32)cc1` (stereo partly specified) is higher in TGI: 5.24 µM for the first, greater than 100 µM for the second.

Compared with `CC(=O)OCC1O[C@@H]([S-])C(OC(C)=O)[C@H](OC(C)=O)[C@@H]1OC(C)=O.[Au+].c1ccc(CN2[CH-]N(Cc3ccccc3)C(c3ccccc3)=C2c2ccccc2)cc1`, `CC(=O)Nc1ccc(C(=O)NN2C(=O)C(Cl)C2c2ccccc2O)cc1` (stereo unspecified) is higher in TGI: 7.78 µM for the first, greater than 100 µM for the second.

Going from `COc1cc(N(CCC#N)CCC#N)ccc1/C(N=Nc1ccccc1)=N/NC(=O)c1cc(Br)ccc1O` to `O=C(c1ccc(Br)cc1)n1c2ccc(Br)cc2c2nc3ccccc3nc21`, the TGI rises from 86.5 µM to greater than 100 µM.

`NC(CCOCCP(=O)(O)CCOCCC(N)C(=O)O)C(=O)O` (stereo unspecified) and `CCOC(=O)NC(=O)c1cn(CCN2CCN(C(=O)CCCCCCCCCCNc3ncnc4nc[nH]c34)CC2)c(=O)[nH]c1=O` cannot be ordered by TGI: greater than 100 µM for the first, greater than 100 µM for the second.

Going from `CCOC(=O)Nc1ccc(-c2nc(-c3cccc(OC)c3)c(-c3ccnc(Br)c3)[nH]2)cc1` to `Cc1ccc2[nH]c3c(ncc4[nH]c5ccccc5c43)c2c1`, the TGI rises from 8.38 µM to 30 µM (3.6-fold).

First: COc1cnc2c(c1)C(=O)c1c-2n(CCCN2CCCC2)c(=O)c2cc(F)ccc12
Second: Cc1nc2n(c(=O)c1CCN1CCC(c3noc4cc(F)ccc34)CC1)CCCC2
The TGI of the first is lower: 10.7 µM for the first, greater than 50 µM for the second.

First: CCCCCCCN1C(=O)C(O)(c2ccc(C3(O)C(=O)N(CCCCCCC)c4ccccc43)s2)c2ccccc21 (stereo unspecified)
Second: O=C=NCCCCCCN1C(=O)N2C(c3ccccc3)N(CCCCCCN=C=O)C(=O)N2C1c1ccccc1 (stereo unspecified)
The TGI of the first is lower: 5.6 µM for the first, greater than 100 µM for the second.

`Cc1c2c(n(CCN(C)C)c1C)NN=C(C#N)S2(=O)=O` and `CCOC(=O)c1ccc(-n2c(SCC)nc3sc(C)c(C)c3c2=O)cc1` cannot be ordered by TGI: greater than 100 µM for the first, greater than 100 µM for the second.

`Nc1nc(Cl)c2nnn(CC3CCC(CO)C3)c2n1` (stereo unspecified) and `Cn1c2c(c3ccccc31)CC(=S)N1CCCC(CC2O)C1` (stereo unspecified) cannot be ordered by TGI: greater than 100 µM for the first, greater than 100 µM for the second.

`CN(C[C@@H]1COCCO1)S(=O)(=O)Nc1ccc2ccc3ncc(-c4cnn(C)c4)cc3c(=O)c2c1` and `Cc1cc(C)nc(SC2=C(Nc3cccc(Cl)c3C)C(=O)N(Cc3ccccc3)C2=O)n1` cannot be ordered by TGI: greater than 100 µM for the first, greater than 160 µM for the second.

First: NC(=Nc1ccc(O)cc1)S(=O)O
Second: NC(=O)NC(=O)c1cccc(NC(=O)CBr)c1
The TGI of the first is higher: greater than 100 µM for the first, 16 µM for the second.

`O=[N+]([O-])/C(C(Cl)=C(Cl)Cl)=C(/Sc1ccccc1)N1CCCCC1` and `CC/C(C)=C1\OC(=O)C(C)C(O)C(Cc2cccnc2)NC(=O)C(NC(=O)c2ncccc2O)C(C)OC1=O` (stereo unspecified) cannot be ordered by TGI: greater than 100 µM for the first, greater than 100 µM for the second.

Compared with `CCCCCCCC(=O)SCC/C=C/[C@@H]1CC(=O)NCc2nc(co2)C2=N[C@@](C)(CS2)C(=O)N[C@@H](C(C)C)C(=O)O1`, `Cc1nc(N)sc1C(=O)Nc1cc(C(=O)NCCCN(C)C)n(C)c1` is higher in GI50: 0.0346 µM for the first, greater than 100 µM for the second.

First: N[C@@H]1CCCN(c2c(/C=C3\SC(=O)NC3=O)cccc2-c2ccccc2)C1
Second: Nc1nnc(Cn2c(-c3ccccc3)nc3ccc(Br)cc3c2=O)s1
The GI50 of the first is lower: 14.7 µM for the first, greater than 100 µM for the second.

Going from `O=C1c2c(O)cc(O)cc2OC(c2ccc(O)cc2O)C1O` (stereo unspecified) to `CCOC(=O)Nc1ccc(-c2nc(-c3cccc(OC)c3)c(-c3ccnc(Br)c3)[nH]2)cc1`, the GI50 falls from greater than 100 µM to 2.46 µM.

`C#CCOc1cccc(Nc2ncnc3ccc(NC(=O)CCl)cc23)c1` and `O=C(Oc1ccccc1Cl)c1ccccc1Nc1ccnc(C(F)(F)F)c1` are within 1.5-fold of each other in GI50: 7.48 µM for the first, 5.22 µM for the second.

Going from `C=C(C)[C@@H]1CC[C@]2(COC3CCCCO3)CC[C@]3(C)[C@H](CC[C@@H]4[C@@]5(C)C=C(C=O)C(=O)C(C)(C)[C@@H]5CC[C@]43C)[C@@H]12` (stereo partly specified) to `Cc1nc2n(c(=O)c1CCN1CCC(c3noc4cc(F)ccc34)CC1)CCCC2`, the GI50 rises from 2.18 µM to greater than 50 µM.

Going from `CC(=O)OCC1O[C@@H]([S-])C(OC(C)=O)[C@H](OC(C)=O)[C@@H]1OC(C)=O.[Au+].c1ccc(CN2[CH-]N(Cc3ccccc3)C(c3ccccc3)=C2c2ccccc2)cc1` to `Cc1cc(C)nc(SC2=C(Nc3cccc(Cl)c3C)C(=O)N(Cc3ccccc3)C2=O)n1`, the GI50 rises from 2.77 µM to greater than 160 µM.

Going from `C/C(=C\c1ccc(Cl)c(Cl)c1)[N+](=O)[O-]` to `COc1cnc2c(c1)C(=O)c1c-2n(CCCN2CCCC2)c(=O)c2cc(F)ccc12`, the GI50 falls from 2.03 µM to 0.434 µM (4.7-fold).

`CN(C[C@@H]1COCCO1)S(=O)(=O)Nc1ccc2ccc3ncc(-c4cnn(C)c4)cc3c(=O)c2c1` showed a GI50 of 4.81 µM.

`C/C(=C\c1ccc(Cl)c(Cl)c1)[N+](=O)[O-]` was tested, and the TGI was 4.21 µM and 34.7 µM.
With `Cc1c(NC(=O)OC[C@@H]2COCCN2)cn2ncnc(Nc3ccc4c(cnn4Cc4cccc(F)c4)c3)c12` the TGI was > 10 µM and 15.5 µM.

`Cc1c(NC(=O)OC[C@@H]2COCCN2)cn2ncnc(Nc3ccc4c(cnn4Cc4cccc(F)c4)c3)c12` was tested, and the GI50 was 0.63 µM and 0.404 µM.
